Data: article PMC8188729 (Nature, 2020)
Like-named read-outs stand apart in the source and are kept apart here.

Test system: HIV-1 CA mutants
Type: cell-based
Settings: mutant/WT EC50 ratio

CC(C)(C#Cc1ccc(-c2ccc(Cl)c3c(NS(C)(=O)=O)nn(CC(F)(F)F)c23)c([C@H](Cc2cc(F)cc(F)c2)NC(=O)Cn2nc(C(F)(F)F)c3c2C(F)(F)[C@@H]2C[C@H]32)n1)S(C)(=O)=O [GS-6207]
Fold GS-6207 resistance (HIV-1 CA Q67H N74D): 1,099 | Fold GS-6207 resistance (HIV-1 CA Q67H N74S): 32 | Fold GS-6207 resistance (HIV-1 CA Q67H T107N): 62
